{"source": "PubChem BioAssay AID540267", "about": "(National Center for Advancing Translational Sciences (NCATS), 2011)", "note": "Hit rate of the full screen: of about 340,000 compounds, about 530 (0.16%) were called active. The inconclusive results got no clear call from the source; some entries with a clear call stand among them for comparison. Rule as the data show it: active = activity change below about -80%; inconclusive = between about -30% and that limit; inactive = weaker than that. % is scaled to controls: 0 for no effect and ±100 for the full control effect.", "data": [{"assay": "Small Molecules that selectively kill Giardia lamblia: qHTS;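 also: parasites exposed to compound for two days anaerobically before the ATP read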", "settings": "Giardia lamblia trophozoite viability; at 7.66 µM; hits give low values", "summary_of_the_method": "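Giardia trophozoites, 100 cells per well, were exposed to compounds for 48 hrs at 37 deg C under anaerobic conditions; viability was then read as ATP content by bioluminescence after 15-30 min at room temperature.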", "values": [{"smiles": "Cc1c(N=Nc2c(O)n(-c3ccc(Br)cc3)c(=O)[nH]c2=O)c(=O)n(-c2ccccc2)n1C", "activity change": "inconclusive: -32.2% [inhibitor]"}, {"smiles": "C1CCC2CCCCC2C1", "note": "(stereo unspecified)", "activity change": "inconclusive: -38.4% [inhibitor]"}, {"smiles": "CC1=C(O)C(=O)C=C2C1=CC=C1C2(C)CCC2(C)C3CC(C)(C(=O)O)CCC3(C)CCC12C", "note": "(stereo unspecified)", "activity change": "inconclusive: -40.8% [inhibitor]"}, {"smiles": "CCCC12CN3CC(CCC)(CN(C1)C3c1ccccn1)C2=O", "note": "(stereo unspecified)", "activity change": "inactive: -2.85%"}, {"smiles": "CCOc1cccc(N2C(=O)/C(=C/c3ccco3)C(=O)NC2=S)c1", "activity change": "inconclusive: -38.4% [inhibitor]"}, {"smiles": "CN(C)c1ccc([N+](=O)[O-])c([N+](=O)[O-])c1", "activity change": "inconclusive: -40.4% [inhibitor]"}, {"smiles": "O=c1c2ccccc2nc(-c2ccoc2)n1-c1ccccc1Cl", "activity change": "inconclusive: -34.8% [inhibitor]"}, {"smiles": "O=[N+]([O-])c1ccc(-[n+]2c(-c3ccccc3)cc(-c3ccccc3)cc2-c2ccccc2)cc1", "activity change": "inconclusive: -31.9% [inhibitor]"}, {"smiles": "Fc1ccc(C2NCCc3[nH]cnc32)cc1", "note": "(stereo unspecified)", "activity change": "inconclusive: -46.2% [inhibitor]"}, {"smiles": "COc1cc2c(cc1OC)-c1c(OC)c(OC)c(OC)c3ccnc(c13)C2=O", "activity change": "active: -82.9%"}, {"smiles": "CCCNC1=C(C)C(=O)C2=C(C1=O)C(COC(N)=O)[C@]1(OC)C3NC3CN21", "note": "(stereo partly specified)", "activity change": "inconclusive: -46% [inhibitor]"}, {"smiles": "CN1CCN(CC#CCOc2ccc(Cl)cc2)CC1", "activity change": "inconclusive: -31.7% [inhibitor]"}, {"smiles": "CCOc1ccc(N2C(=O)NC(=O)/C(=C\\c3ccc(N4CCOCC4)cc3C)C2=O)cc1", "activity change": "inconclusive: -32.2% [inhibitor]"}, {"smiles": "Cc1ccccc1-n1c(C)nc2ccccc2c1=O", "activity change": "inconclusive: -43.2% [inhibitor]"}, {"smiles": "CCOC(=O)C1=C(N)OC2=C(C(=O)CCC2)C12C(=O)N(CC(N)=O)c1ccccc12", "note": "(stereo unspecified)", "activity change": "inactive: -9.09%"}, {"smiles": "CC1Oc2cc3c(-c4c(O)cc(O)c5c(O)c6c(cc45)OC(C)C(C)C6=O)c(O)cc(O)c3c(O)c2C(=O)C1C", "note": "(stereo unspecified)", "activity change": "active: -82.4%"}, {"smiles": "CCCC1(CCC)C(=O)NC(=NCc2ccccc2)NC1=O", "activity change": "inactive: -8.24%"}, {"smiles": "Cc1ncc([N+](=O)[O-])n1CCOC(N)=O", "activity change": "inconclusive: -53.7% [inhibitor]"}, {"smiles": "COc1cccc(-n2c(/C=C/c3ccccn3)nc3ccccc3c2=O)c1", "activity change": "inactive: -3.09%"}, {"smiles": "COC(=O)C1=C(c2ccc(-c3ccccc3)c(F)c2)C[C@@H]2CC[C@H]1N2C(=O)N1CCCC1", "activity change": "inactive: 7.51%"}, {"smiles": "COc1cccc2c1C(=O)c1c(O)c3c(c(O)c1C2=O)CC(O)(C(C)=NO)CC3OC1CC(N)C(O)C(C)O1", "note": "(stereo unspecified)", "activity change": "inactive: -20.4%"}, {"smiles": "CC(Cc1ccc(O)cc1)NCC(O)c1cc(O)cc(O)c1", "note": "(stereo unspecified)", "activity change": "inconclusive: -31.3% [inhibitor]"}, {"smiles": "ClC(Cl)(Cl)c1ccccc1", "activity change": "inconclusive: -35.7% [inhibitor]"}, {"smiles": "COc1ccc(N2C(=O)NC(=O)/C(=C\\c3cn(C)c4ccccc34)C2=O)cc1", "activity change": "inactive: 0.603%"}, {"smiles": "CSc1nc(NC(C)C)nc(NC(C)C)n1", "activity change": "inconclusive: -30.5% [inhibitor]"}, {"smiles": "CCOC(=O)[C@]12Cc3cc(Cl)ccc3[C@H]1N(Cc1ccccc1)C(=O)c1ccccc12", "activity change": "inconclusive: -33.3% [inhibitor]"}, {"smiles": "Cc1ccccc1C(O)(Cc1ccccc1)C1CN2CCC1CC2", "note": "(stereo unspecified)", "activity change": "inactive: 7.89%"}, {"smiles": "Cn1nc(-c2ccccc2)nc2c(=O)n(C)c(=O)nc1-2", "activity change": "active: -89.4%"}, {"smiles": "C=CCn1c(O)c(C(C)=Nc2ccc(NC(C)=O)cc2)c(=O)[nH]c1=O", "activity change": "inconclusive: -30.9% [inhibitor]"}, {"smiles": "CCOC(=O)c1cccc([P+](=O)O)c1", "activity change": "inconclusive: -30.9% [inhibitor]"}, {"smiles": "COC1C(O)C(C)OC(OC2CCC3(C)C(CCC4C3C(O)CC3(C)C(C5=CC(=O)OC5)CCC43O)C2)C1O", "note": "(stereo unspecified)", "activity change": "inactive: -0.0322%"}, {"smiles": "COC(=O)C1=C(c2ccc(OC(F)(F)F)cc2)C[C@@H]2CC[C@H]1N2C(=O)N1CCC(C)CC1", "activity change": "inconclusive: -36% [inhibitor]"}, {"smiles": "CC[C@@H]1C(=O)OC[C@@H]1Cc1cncn1C", "activity change": "inconclusive: -31.4% [inhibitor]"}, {"smiles": "C[C@]12CC[C@H]3[C@@H](CC[C@]4(O)C[C@@H](O)CC[C@]34C=O)[C@@]1(O)CC[C@@H]2C1=CC(=O)OC1", "activity change": "inconclusive: -30.8% [inhibitor]"}, {"smiles": "C[C@H]1C[C@@H](C)C(=O)[C@@H]([C@H](O)CC2CC(=O)NC(=O)C2)C1", "activity change": "inconclusive: -68.3% [inhibitor]"}, {"smiles": "O=[N+]([O-])c1oc2ccc3ccccc3c2c1CCO", "activity change": "active: -94.8%"}, {"smiles": "O=[N+]([O-])c1cccc2c([As](=O)(O)O)cccc12", "activity change": "active: -93.6%"}, {"smiles": "Nc1ccc2ccc3cccc[n+]3c2c1", "activity change": "inconclusive: -35.1% [inhibitor]"}, {"smiles": "c1cncc(C2Nc3cccc4cccc(c34)N2)c1", "activity change": "inconclusive: -30.1% [inhibitor]"}, {"smiles": "Cc1cc(N2CCNCC2)nc2ccccc12", "activity change": "inactive: 11.1%"}, {"smiles": "Cc1ccsc1C(=O)C1CCCN(Cc2ccc(-n3cccn3)cc2)C1", "note": "(stereo unspecified)", "activity change": "inconclusive: -38% [inhibitor]"}, {"smiles": "ClCC(Br)CBr", "note": "(stereo unspecified)", "activity change": "inconclusive: -30.6% [inhibitor]"}, {"smiles": "O=C(NN=Cc1ccc(N(CCCl)CCCl)cc1)C(=O)c1c[nH]c2ccccc12", "activity change": "inactive: -11.8%"}, {"smiles": "O=C(CCc1nnc2ccc(NCc3ccc(F)cc3)nn12)N1CCC2(CC1)OCCO2", "activity change": "inconclusive: -31.5% [inhibitor]"}, {"smiles": "CCc1ccc(N2C(=O)CC(=O)NC2=O)cc1", "activity change": "inconclusive: -43.6% [inhibitor]"}, {"smiles": "COc1ccc(C(=O)c2nc3ccccc3n2C(C)C)cc1OC", "activity change": "inconclusive: -34.6% [inhibitor]"}, {"smiles": "CCCCCSc1cc(O)c(C(CNC)C(C)C)cc1OC", "note": "(stereo unspecified)", "activity change": "inactive: -19.3%"}, {"smiles": "CCC(C)n1c(O)c(C=NCCN2CCOCC2)c(=O)[nH]c1=S", "note": "(stereo unspecified)", "activity change": "inconclusive: -30.2% [inhibitor]"}, {"smiles": "Cn1cccc1/C=C1\\C(=O)NC(=O)N(Cc2ccco2)C1=O", "activity change": "inactive: -7.49%"}, {"smiles": "CCC(=O)Nc1ccccc1", "activity change": "inactive: 12.5%"}, {"smiles": "Cc1nc2ccccc2c(=O)n1-c1cc([N+](=O)[O-])cc([N+](=O)[O-])c1", "activity change": "inconclusive: -50.8% [inhibitor]"}]}]}
